{"source": "PubChem BioAssay AID1468", "about": "(National Center for Advancing Translational Sciences (NCATS), 2008)", "note": "Among all 280,000 compounds or so, about 1,100 (0.39%) were called active. Inconclusive results, whose numbers are uncertain, are shown with a selection of clear calls. Calls come from the whole dose curve; as a rule, active = well fitted inhibition curve with a large enough effect; inconclusive = small, poorly fitted or top-dose-only effect, or effect the other way; inactive = flat fitted curve, though single readings scatter. Potencies of inconclusive entries are left out as doubtful fits. % is set by controls: 0 for no effect and ±100 for the full control effect; potency is the fitted concentration of half-maximal effect; tags give direction and shape of the fitted curve.", "data": [{"molecular_target": "Microtubule-associated protein tau (Homo sapiens) (UniProt P10636)", "sequence (P10636 whole entry, looked up)": "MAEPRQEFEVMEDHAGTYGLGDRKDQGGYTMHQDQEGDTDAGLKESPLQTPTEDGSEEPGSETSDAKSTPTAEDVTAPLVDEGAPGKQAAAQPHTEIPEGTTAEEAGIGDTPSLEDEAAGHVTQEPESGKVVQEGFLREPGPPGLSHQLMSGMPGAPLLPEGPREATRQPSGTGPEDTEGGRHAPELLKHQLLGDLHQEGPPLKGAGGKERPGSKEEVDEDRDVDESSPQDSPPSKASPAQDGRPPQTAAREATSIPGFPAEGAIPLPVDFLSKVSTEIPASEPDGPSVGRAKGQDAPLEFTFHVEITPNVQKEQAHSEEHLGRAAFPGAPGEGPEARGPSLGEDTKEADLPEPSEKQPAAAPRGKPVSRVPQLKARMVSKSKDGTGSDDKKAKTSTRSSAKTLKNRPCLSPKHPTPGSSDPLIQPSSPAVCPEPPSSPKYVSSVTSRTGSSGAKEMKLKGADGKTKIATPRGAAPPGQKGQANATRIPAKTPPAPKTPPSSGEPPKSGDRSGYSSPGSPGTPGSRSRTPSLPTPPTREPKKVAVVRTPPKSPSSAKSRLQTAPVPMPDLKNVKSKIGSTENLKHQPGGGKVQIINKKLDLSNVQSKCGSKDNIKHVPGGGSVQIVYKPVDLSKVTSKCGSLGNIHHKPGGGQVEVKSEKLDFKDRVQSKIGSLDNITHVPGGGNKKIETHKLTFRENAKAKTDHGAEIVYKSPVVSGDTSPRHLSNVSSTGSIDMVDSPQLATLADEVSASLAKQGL", "assay": "qHTS for Inhibitors of Tau Fibril Formation, Fluorescence Polarization; note: nearly all actives have a fitted effect of over 55% in size", "settings": "K18 P301L tau heparin fibrillization, Alexa594 FP, 6 h; series mostly up to 57.7 µM; activity, negative = inhibition: at the top concentration", "method_in_brief": "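Read-out: fluorescence polarization of Alexa 594-labeled tau (0.24 uM), 555 nm excitation, 632 nm emission. Mixtures held 15 uM unlabeled K18 P301L, compound and 20 uM heparin, pH 7 acetate buffer, incubated 6 hr at 37 C.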", "values": [{"smiles": "Cc1c(C(=O)c2ccc(Cl)cc2Cl)cnc2cc3c(cc12)OCO3", "activity, negative = inhibition": "inactive: -2.67%"}, {"smiles": "CN(c1ccc(OCC(=O)OCC(=O)Nc2ccc(Br)cc2)cc1)S(=O)(=O)c1cccs1", "Potency": "inconclusive [inhibitor, partial curve]"}, {"smiles": "Cc1cc(OCC(=O)Nc2ccncc2)c(C)cc1Br", "Potency": "inconclusive [inhibitor, single point]"}, {"smiles": "CCCCc1nc2c(c3c1C[C@H](C)OC3)CN(C(=O)Cc1cccc(OC)c1)CC2", "activity, negative = inhibition": "inactive: 4.12% [at 11.6 µM]"}, {"smiles": "COc1ccc2oc(C(=O)c3ccccc3)c(N)c2c1", "Potency": "inconclusive [activator, full curve, poor fit]"}, {"smiles": "Cc1cc(C(=O)N/N=C/c2ccc3c(c2)OCO3)c(C)o1", "activity, negative = inhibition": "inactive: -5.05%"}, {"smiles": "CC(=O)Nc1cccc(NC(=O)CCc2ccccc2)c1", "activity, negative = inhibition": "inactive: -1.09%"}, {"smiles": "CCS(=O)(=O)c1cc([N+](=O)[O-])c(Sc2ccccc2N)s1", "Potency": "inconclusive [inhibitor, partial curve]"}, {"smiles": "CCOc1ccccc1NC(=O)Cn1nnc(C(=O)Nc2ccccc2Cl)c1N", "Potency": "inconclusive [inhibitor, partial curve]"}, {"smiles": "COc1cccc(/C=c2\\s/c(=C/C(=O)c3ccc(C)cc3)[nH]c2=O)c1OC", "Potency": "inconclusive [inhibitor, partial curve]"}, {"smiles": "CCCNC(=O)NC(=O)CSc1nnc(C)n1N", "Potency": "inconclusive [activator, single point]"}, {"smiles": "COC(=O)c1cccc2c1-c1ccccc1/C2=N/O", "Potency": "inconclusive [inhibitor, single point]"}, {"smiles": "CCN(CC)CCCN(Cc1cc2cc(OC)ccc2[nH]c1=O)C(=O)Nc1ccccc1", "Potency": "inconclusive [inhibitor, full curve, poor fit]"}, {"smiles": "Cc1ccc(S(=O)(=O)ON2C(=O)c3ccccc3C2=O)c(C)c1", "Potency": "inconclusive [inhibitor, partial curve]"}, {"smiles": "COc1ccc(C(=O)Nc2ccc3oc(-c4cccc5c(Br)cccc45)nc3c2)cc1", "Potency": "inconclusive [inhibitor, partial curve]"}, {"smiles": "COc1ccc(C(=O)c2cc(C(C)=O)c(Nc3ccccc3)s2)cc1", "Potency": "inconclusive [inhibitor, single point]"}, {"smiles": "Cc1cc(C)cc(NC(=O)COc2cccc3c(=O)n(C)ccc23)c1", "activity, negative = inhibition": "inactive: -8.57%"}, {"smiles": "Cc1ccc(S(=O)(=O)N/N=C\\c2cccnc2)cc1", "activity, negative = inhibition": "inactive: -3.6%"}, {"smiles": "O=C(NCc1ccc2c(c1)OCO2)c1ccc2c(c1)N(Cc1c(F)cccc1Cl)C(=O)c1ccccc1S2", "Potency": "inconclusive [inhibitor, partial curve, poor fit]"}, {"smiles": "Cc1ccc(-c2noc(CNC(=O)c3ccc(C)c(Cl)c3)n2)cc1", "Potency": "inconclusive [inhibitor, partial curve]"}, {"smiles": "c1ccc2c(c1)[nH]c1c3ccccc3sc21", "Potency": "inconclusive [activator, single point]"}, {"smiles": "COc1ccccc1CN1C[C@@H]2C[C@@H](c3cccc(O)c3)N3CCC[C@@]23C1=O", "activity, negative = inhibition": "inactive: -3.68%"}, {"smiles": "CCc1ccc(OCC(=O)N(Cc2ccc(C(C)C)cc2)C2CCS(=O)(=O)C2)cc1", "note": "(configuration not stated)", "Potency": "inconclusive [activator, partial curve, poor fit]"}, {"smiles": "Cc1nnc(NC(=O)c2ccc(S(=O)(=O)N3CCc4ccccc4C3)cc2)o1", "activity, negative = inhibition": "inactive: 9.91%"}, {"smiles": "Cc1ccc2nc(-c3ccc(NS(C)(=O)=O)cc3)cc(-c3ccccc3)c2c1", "Potency": "inconclusive [inhibitor, partial curve]"}, {"smiles": "O=[N+]([O-])C(=C1Nc2ccccc2N1)/C(Cl)=C(/Cl)Br", "Potency": "inconclusive [inhibitor, single point]"}, {"smiles": "COc1cc(/C=C/C(=O)N2C(=O)c3cccc(N)c3C2=O)cc(OC)c1OC", "Potency": "inconclusive [inhibitor, partial curve]"}, {"smiles": "CCCc1nc2ccc(NC(=O)c3cccs3)cc2c(=O)n1Cc1ccccc1Cl", "Potency": "inconclusive [inhibitor, partial curve]"}, {"smiles": "Cc1ccc2oc(-c3ccc(C)c(NC(=O)/C=C/c4ccco4)c3)nc2c1", "Potency": "inconclusive [inhibitor, partial curve, poor fit]"}, {"smiles": "Cc1ccc2c(CC(=O)N(Cc3ccc(N(C)C)cc3)Cc3ccco3)coc2c1C", "activity, negative = inhibition": "inactive: 3.45%"}, {"smiles": "COc1c(Br)cc(Br)cc1/C=N/NC(=O)c1ccncc1", "Potency": "inconclusive [inhibitor, partial curve]"}, {"smiles": "Cc1c(C(=O)N/N=C/c2ccccc2)[nH]c2ccc(Cl)cc12", "Potency": "inconclusive [inhibitor, partial curve]"}, {"smiles": "Cc1ccc(-n2c(C)cc(C=C(C#N)C#N)c2C)cc1", "Potency": "inconclusive [inhibitor, partial curve, poor fit]"}, {"smiles": "COc1cc(S(=O)(=O)N(Cc2ccco2)C2CCCC2)ccc1-n1cnnn1", "activity, negative = inhibition": "inactive: 4.49%"}, {"smiles": "Cc1ccc(-c2nc(CSc3nnc(C)n4c3cc3occc34)c(C)o2)cc1", "activity, negative = inhibition": "inactive: 9.62%"}, {"smiles": "COc1ccc(OC)c(NC(=O)C23CCC(C)(C(=O)C2)C3(C)C)c1", "note": "(configuration not stated)", "activity, negative = inhibition": "inactive: -2.06%"}, {"smiles": "S=C(Nc1ccc2nsnc2c1)NC1CCCCC1", "Potency": "inconclusive [inhibitor, partial curve]"}, {"smiles": "Cc1cc(/C=C2/NC(=O)NC2=O)c(C)n1-c1ccc(N2CCOCC2)cc1", "activity, negative = inhibition": "inactive: -10.4%"}, {"smiles": "CCOc1ccc(-c2nc(-c3ccccc3)c(-c3ccccc3)[nH]2)cc1OCC", "Potency": "inconclusive [activator, partial curve, poor fit]"}, {"smiles": "COc1cc2nc(Nc3cccc(F)c3)nc(N)c2cc1OC", "Potency": "inconclusive [activator, full curve]"}, {"smiles": "O=C(Nc1ccc(Cl)cc1)NC1CCCC1Cc1ccco1", "note": "(configuration not stated)", "Potency": "inconclusive [inhibitor, single point]"}, {"smiles": "Cn1c(=O)c2c(nc(N/N=C/c3cccs3)n2Cc2ccccc2)n(C)c1=O", "Potency": "inconclusive [activator, single point]"}, {"smiles": "CCOc1ccccc1N1CSC2=C(C#N)C(c3c(OC)ccc4ccccc34)CC(=O)N2C1", "note": "(configuration not stated)", "Potency": "active: 10 µM"}, {"smiles": "CCc1ccc(NC(=O)c2cc(Br)ccc2Br)cc1", "Potency": "inconclusive [inhibitor, single point]"}, {"smiles": "CC(C)CN1C(=O)c2ccc(NC(=O)c3cccs3)cc2C1=O", "Potency": "inconclusive [inhibitor, partial curve]"}, {"smiles": "CCOC(=O)c1c(C)[nH]c(C(=O)COC(=O)c2ccc(O)cc2O)c1C", "Potency": "inconclusive [inhibitor, single point]"}, {"smiles": "COc1ccc(C(=O)CSc2nc(N)nc(SC)c2C#N)cc1", "Potency": "inconclusive [inhibitor, single point]"}, {"smiles": "Cc1cc(C)c2c3c(sc2n1)C1(CCSCC1)C(C#N)=C(N)O3", "Potency": "inconclusive [inhibitor, full curve, poor fit]"}, {"smiles": "Cc1cc(N2C3CCC2CC(O)(c2ccc(F)cc2)C3)nc(-c2ccccc2)n1", "note": "(configuration not stated)", "Potency": "inconclusive [inhibitor, full curve, poor fit]"}, {"smiles": "CC(=O)c1c(C)[nH]c(C(=O)COc2cc(C)ccc2C(C)C)c1C", "activity, negative = inhibition": "inactive: -4%"}, {"smiles": "O=c1c2sccc2nc(SCc2ccc([N+](=O)[O-])cc2)n1Cc1ccccn1", "Potency": "inconclusive [activator, single point]"}, {"smiles": "CCN(CC)S(=O)(=O)c1ccc2c(c1)nc(CN(C)C(=O)Nc1ccc(C)c(Cl)c1)n2C", "activity, negative = inhibition": "inactive: -12.2%"}, {"smiles": "COc1ccccc1Nc1nc(C)nc(N)c1S(=O)(=O)c1ccccc1", "Potency": "inconclusive [inhibitor, partial curve, poor fit]"}, {"smiles": "CCCCSc1nc(O)c(Cc2ccccc2)c(=O)[nH]1", "Potency": "inconclusive [inhibitor, partial curve, poor fit]"}, {"smiles": "O=c1cc(CO)oc(CN2CCN(CCO)CC2)c1O", "Potency": "inconclusive [inhibitor, single point]"}, {"smiles": "O=S1(=O)N=C(Nc2nncs2)c2ccccc21", "Potency": "inconclusive [inhibitor, single point]"}, {"smiles": "NC1=NC(=O)/C(=C\\c2ccco2)S1", "Potency": "inconclusive [inhibitor, partial curve]"}, {"smiles": "CC1=C(C#N)C(=O)NC(=O)/C1=C\\c1ccc(-c2cc(C)c(C)cc2[N+](=O)[O-])o1", "Potency": "inconclusive [inhibitor, single point]"}, {"smiles": "Cc1ccc(O)c(NC(=O)c2cc(-c3ccc(F)cc3)no2)c1", "Potency": "inconclusive [activator, single point]"}, {"smiles": "O=C(Cn1c(=O)ccc2cc(S(=O)(=O)N3CCCC3)ccc21)Nc1ccccc1", "activity, negative = inhibition": "inactive: -12.6%"}, {"smiles": "O=C(COC(=O)c1c2c(nc3ccccc13)CCCCC2)c1ccc(Cl)s1", "Potency": "inconclusive [activator, partial curve, poor fit]"}, {"smiles": "Cc1ccc(C2(c3noc(CN4CCC(C(=O)N5CCOCC5)CC4)n3)CCCC2)cc1", "Potency": "inconclusive [inhibitor, full curve, poor fit]"}, {"smiles": "O=C(Cn1c(-c2cccs2)cc2cc(F)ccc21)NCCc1ccc(Cl)cc1", "Potency": "inconclusive [inhibitor, partial curve]"}, {"smiles": "O=S(=O)(Nc1ccc(O)c(Sc2nc3ccccc3s2)c1)c1cc(Cl)ccc1Cl", "Potency": "inconclusive [inhibitor, partial curve]"}, {"smiles": "Clc1ccc(-c2nnnn2-c2ccc(Cl)c(Cl)c2)cc1Cl", "Potency": "inconclusive [inhibitor, full curve]"}, {"smiles": "O=c1ccc(-c2ccccc2)nn1Cc1c(F)cccc1Cl", "activity, negative = inhibition": "inactive: 2.38%"}, {"smiles": "COc1cc(NC(=O)c2noc3c2CC(C)CC3)c(OC)cc1Cl", "note": "(configuration not stated)", "Potency": "inconclusive [inhibitor, full curve, poor fit]"}]}]}
